Eleven molecules from the supplement of paper PMC10326071 can be followed below.

The test system of assay [1] is SARS-CoV-2 nsp3 SARS-unique domain core (SUD-core, nsp3 residues 413-676). Kind of assay: dissociation rate constant koff (BLI); higher = faster dissociation. The settings on record: 100 µM; 25 °C.
Assay [2] shares this test system. Kind of assay: apparent dissociation constant Kd (single-concentration BLI fit); higher = weaker binding. Particulars: 100 µM; 25 °C.

The other results are listed elsewhere or left out. Many values rest on one well or one pass, so single values are uncertain.

Regarding `CC[C@@]1(c2ccccc2)C2=C(CC(C)(C)CC2=O)Nc2[nH]ncc21`, the “dissociation rate constant koff” value in assay [1] was 2.07 s⁻¹. Further, the “apparent dissociation constant Kd” value in assay [2] turned out to be 1490 µM.
For `C=CC(=O)Nc1cc2c(Nc3ccc(F)c(Cl)c3)ncnc2cc1OCCCN1CCOCC1` the same measures were 0.181 s⁻¹ and 3470 µM.
In the case of `CCN1Cc2c(ccc(F)c2C#N)O[C@@H](C)CNC(=O)c2c(N)nn3ccc1nc23`, the “dissociation rate constant koff” value in assay [1] came out at 0.861 s⁻¹. Also, the “apparent dissociation constant Kd” value in assay [2] amounted to 2330 µM.
For `Cc1cccc(/C=N/Nc2cc(N3CCOCC3)nc(OCCc3ccccn3)n2)c1` the same measures were 0.565 s⁻¹ and 2610 µM.
With `Clc1ccc(C2(c3ccc(-c4cn[nH]c4)cc3)CCNCC2)cc1`, the “dissociation rate constant koff” value in assay [1] came to 0.65 s⁻¹. For the same molecule, in assay [2], the “apparent dissociation constant Kd” value was determined as 2040 µM.
`OC1CCC(Nc2ncc3nc(Nc4c(F)cc(F)cc4F)n([C@H]4CCOC4)c3n2)CC1` (some centres not stated): the “dissociation rate constant koff” value in assay [1] was 1.43 s⁻¹. Further, in assay [2], the “apparent dissociation constant Kd” value is 858 µM.
As to `CNc1ncc2cc(-c3ccc(-c4cccc(C)n4)cc3Cl)c(=O)n(CC3OCC(N)CO3)c2n1` (configuration not stated), the “dissociation rate constant koff” value in assay [1] amounted to 0.315 s⁻¹. Moreover, in assay [2], the “apparent dissociation constant Kd” value came out at 5880 µM.
On to `COc1cc2ncnc(Nc3ccccc3)c2cc1OC`, for which the “dissociation rate constant koff” value in assay [1] was found to be 0.486 s⁻¹. In assay [2], the “apparent dissociation constant Kd” value came out at 397 µM.
As to `O=C(NCCCNc1nc(Nc2cccc(NC(=O)N3CCCC3)c2)ncc1I)c1cccs1`, the “dissociation rate constant koff” value in assay [1] came out at 0.506 s⁻¹. Further, in assay [2], the “apparent dissociation constant Kd” value was found to be 2240 µM.
For the molecule `C=C1C(=O)[C@]23[C@H](O)[C@H]1CC[C@H]2[C@@]12CO[C@]3(O)[C@@H](O)[C@@H]1C(C)(C)CC[C@@H]2O`, the “dissociation rate constant koff” value in assay [1] came out at 0.265 s⁻¹. In assay [2], the “apparent dissociation constant Kd” value was 3160 µM.
For `O=C(c1ccc(-c2ccc(Cl)cc2)o1)N(Cc1ccccn1)c1ccc(N2CCNCC2)cc1`, the “dissociation rate constant koff” value in assay [1] came to 0.204 s⁻¹. Moreover, the “apparent dissociation constant Kd” value in assay [2] turned out to be 3280 µM.
